The source gives many values for each of these; only a part stands here.
Test: Biodistribution of 67Ga complexes in mice
Type: in vivo, balb/c mice
Experimental: To ligand (50 μL, 10 mg/mL, 0.2 M NaOAc, […]) was added ^67 Ga citrate (18.5 MBq) and the resultant mixture diluted to 1 mL (0.2 M NaOAc, pH 7). The pH was adjusted to 12 with 1 M NaOH (20 μL) and heated at 40° C. for 40 min. The final volume was adjusted (to 5 mL) with saline and sterilised by filtering through a 0.22 μm filter.
Each animal was injected via tail vein with ^67 Ga complex (100 μL, ~3.7×10^5 Bq). Animals were sacrificed at various time intervals (5 animals per time point/6 time points). Data are illustrated in FIG. 26-30 and in Tables 13-17.
Each ^67 Ga-ligand complex has been evaluated in balb/c mice. […] (see FIG. 26-30).

CC(C)(C)c1ccc(O)c(NC(=O)CN(CCN(CC(=O)O)CC(=O)Nc2cc(C(C)(C)C)ccc2O)CC(=O)O)c1 [Compound 4]
biodistribution bladder (1 min): 0.14 % ID | biodistribution blood (1 min): 9.95 % ID | biodistribution caecum (1 min): 0.19 % ID | biodistribution colon (1 min): 0.32 % ID | biodistribution duodenum (1 min): 0.09 % ID | biodistribution heart (1 min): 0.27 % ID | biodistribution ileum (1 min): 0.20 % ID | biodistribution jejunum (1 min): 1.16 % ID | biodistribution lungs (1 min): 0.64 % ID | biodistribution ovaries (1 min): 0.13 % ID | biodistribution pancreas (1 min): 0.17 % ID | biodistribution salivary gl (1 min): 0.12 % ID | biodistribution stomach GL (1 min): 0.14 % ID | biodistribution stomach SQ (1 min): 0.06 % ID | biodistribution tail (1 min): 0.00 % ID | biodistribution bladder (3 min): 0.28 % ID | biodistribution blood (3 min): 3.06 % ID | biodistribution caecum (3 min): 0.15 % ID | biodistribution colon (3 min): 0.11 % ID | biodistribution duodenum (3 min): 0.25 % ID | biodistribution heart (3 min): 0.08 % ID | biodistribution ileum (3 min): 0.080 % ID | biodistribution jejunum (3 min): 1.17 % ID | biodistribution lungs (3 min): 0.26 % ID | biodistribution ovaries (3 min): 0.12 % ID | biodistribution pancreas (3 min): 0.05 % ID | biodistribution salivary gl (3 min): 0.06 % ID | biodistribution stomach GL (3 min): 0.06 % ID | biodistribution stomach SQ (3 min): 0.03 % ID | biodistribution tail (3 min): 0.88 % ID | biodistribution bladder (5 min): 0.14 % ID | biodistribution blood (5 min): 2.28 % ID | biodistribution caecum (5 min): 0.06 % ID | biodistribution colon (5 min): 0.14 % ID | biodistribution duodenum (5 min): 0.44 % ID | biodistribution heart (5 min): 0.05 % ID | biodistribution ileum (5 min): 0.05 % ID | biodistribution jejunum (5 min): 1.19 % ID | biodistribution lungs (5 min): 0.18 % ID | biodistribution ovaries (5 min): 0.10 % ID | biodistribution pancreas (5 min): 0.10 % ID | biodistribution salivary gl (5 min): 0.03 % ID | biodistribution stomach GL (5 min): 0.47 % ID | biodistribution stomach SQ (5 min): 0.07 % ID | biodistribution tail (5 min): 0.73 % ID | biodistribution bladder (10 min): 0.41 % ID | biodistribution blood (10 min): 0.27 % ID | biodistribution caecum (10 min): 0.09 % ID | biodistribution colon (10 min): 0.06 % ID | biodistribution duodenum (10 min): 0.36 % ID | biodistribution heart (10 min): 0.01 % ID | biodistribution ileum (10 min): 0.06 % ID | biodistribution jejunum (10 min): 5.43 % ID | biodistribution lungs (10 min): 0.03 % ID | biodistribution ovaries (10 min): 0.02 % ID | biodistribution pancreas (10 min): 0.03 % ID | biodistribution salivary gl (10 min): 0.01 % ID | biodistribution stomach GL (10 min): 0.19 % ID | biodistribution stomach SQ (10 min): 0.04 % ID | biodistribution tail (10 min): 0.57 % ID | biodistribution bladder (30 min): 0.00 % ID | biodistribution blood (30 min): 0.13 % ID | biodistribution caecum (30 min): 0.49 % ID | biodistribution colon (30 min): 0.28 % ID | biodistribution duodenum (30 min): 0.53 % ID | biodistribution heart (30 min): 0.00 % ID | biodistribution ileum (30 min): 01.52 % ID | biodistribution jejunum (30 min): 0.61 % ID | biodistribution lungs (30 min): 0.01 % ID | biodistribution ovaries (30 min): 0.00 % ID | biodistribution pancreas (30 min): 0.00 % ID | biodistribution salivary gl (30 min): 0.00 % ID | biodistribution stomach GL (30 min): 0.02 % ID | biodistribution stomach SQ (30 min): 0.01 % ID | biodistribution tail (30 min): 0.14 % ID | biodistribution bladder (120 min): 0.00 % ID | biodistribution blood (120 min): 0.10 % ID | biodistribution bone (120 min): 0.15 % ID | biodistribution caecum (120 min): 1.19 % ID | biodistribution colon (120 min): 0.56 % ID | biodistribution duodenum (120 min): 0.04 % ID | biodistribution heart (120 min): 0.00 % ID | biodistribution ileum (120 min): 0.12 % ID | biodistribution jejunum (120 min): 0.20 % ID | biodistribution lungs (120 min): 0.01 % ID | biodistribution ovaries (120 min): 0.00 % ID | biodistribution pancreas (120 min): 0.01 % ID | biodistribution salivary gl (120 min): 0.00 % ID | biodistribution stomach GL (120 min): 0.02 % ID | biodistribution stomach SQ (120 min): 0.21 % ID | biodistribution tail (120 min): 0.11 % ID

— patent US5807535A, “Metal complexes of hydroxyaryl containing aminocarboxylic acid chelating agents” (Australian Nuclear Science & Technology Organisation, priority 1992, dated 1998)
